In publication PMC4336329 (PLoS ONE, 2015):
In all, about 310,000 compounds went through this assay and about 2,200 (0.71%) showed an effect of 50% or more. Effects have a minus sign here. The list shows a part of the results.

target: human ether-à-go-go-related gene (hERG) potassium channel (human, UniProt Q12809); experiment: primary screen, population patch clamp on CHO cells stably expressing hERG
Sequence (Q12809 whole entry, looked up): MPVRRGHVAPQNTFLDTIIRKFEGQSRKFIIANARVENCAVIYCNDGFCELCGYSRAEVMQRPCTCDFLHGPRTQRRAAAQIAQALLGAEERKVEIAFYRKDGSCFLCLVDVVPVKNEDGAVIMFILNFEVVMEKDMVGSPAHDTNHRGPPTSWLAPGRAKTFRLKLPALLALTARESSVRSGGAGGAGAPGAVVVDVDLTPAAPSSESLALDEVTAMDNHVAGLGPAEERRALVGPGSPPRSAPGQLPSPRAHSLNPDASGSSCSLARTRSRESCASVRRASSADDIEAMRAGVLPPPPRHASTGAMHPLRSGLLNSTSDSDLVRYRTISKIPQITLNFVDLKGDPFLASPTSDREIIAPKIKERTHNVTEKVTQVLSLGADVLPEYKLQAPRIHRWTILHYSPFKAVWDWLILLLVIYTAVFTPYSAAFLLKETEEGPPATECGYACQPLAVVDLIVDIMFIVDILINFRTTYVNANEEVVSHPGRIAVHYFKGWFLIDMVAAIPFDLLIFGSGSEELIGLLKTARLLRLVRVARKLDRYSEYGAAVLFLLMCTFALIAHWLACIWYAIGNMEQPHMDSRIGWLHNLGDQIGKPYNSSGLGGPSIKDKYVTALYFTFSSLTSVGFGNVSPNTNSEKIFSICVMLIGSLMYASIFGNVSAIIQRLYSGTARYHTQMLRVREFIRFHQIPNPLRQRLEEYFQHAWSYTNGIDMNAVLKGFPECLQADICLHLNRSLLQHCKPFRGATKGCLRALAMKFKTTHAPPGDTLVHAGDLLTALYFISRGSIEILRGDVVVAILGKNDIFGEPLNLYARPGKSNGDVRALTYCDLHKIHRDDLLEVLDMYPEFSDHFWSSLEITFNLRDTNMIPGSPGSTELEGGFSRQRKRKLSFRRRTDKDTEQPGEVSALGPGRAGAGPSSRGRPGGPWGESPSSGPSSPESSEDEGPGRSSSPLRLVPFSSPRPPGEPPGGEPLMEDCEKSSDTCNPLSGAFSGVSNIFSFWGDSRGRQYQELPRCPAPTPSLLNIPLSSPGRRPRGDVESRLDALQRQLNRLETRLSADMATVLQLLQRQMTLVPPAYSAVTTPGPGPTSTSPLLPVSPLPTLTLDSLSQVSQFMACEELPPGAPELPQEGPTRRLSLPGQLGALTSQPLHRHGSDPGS

| SMILES | hERG current change (%, negative = inhibition) at 1uM [%] |
| --- | --- |
| CCOC(=O)C1(CCOc2ccccc2)CCN(Cc2ccc3c(c2)OCCO3)CC1 | -25.8 |
| O=c1[nH]c(/C=C\c2cccs2)nc(O)c1[N+](=O)[O-] | 7.29 |
| CCOc1cccc2cc(C(=O)NCc3ccc(Cl)cc3)c(=N)oc12 | 9.46 |
| COc1ccc(N=Cc2nc(-c3ccco3)oc2O)cc1 | 7.06 |
| Cc1ccc(Cl)cc1NS(=O)(=O)N1CCOCC1 | 4.61 |
| ClC1=C(Cl)C2(Cl)C3C(Cl)C=CC3C1(Cl)C2(Cl)Cl (stereo not shown) | 9.29 |
| Cc1ccc(-c2nn(CC(=O)NCCN3CCOCC3)c(=O)c3ccccc23)cc1 | -3.87 |
| COc1ccc2c(c1)C(c1ccc(C)o1)=NNC(c1cccnc1)=N2 | 9.67 |
| Cc1ccc(-n2nnnc2SCC(=O)Nc2nc(-c3ccc(F)cc3)cs2)cc1C | 11.5 |
| Cc1cc(C)cc(NC(=O)CN2CCC(NC(=O)c3ccccc3F)CC2)c1 | -1.51 |
| NNC(=O)c1ccc(Cn2cccn2)o1 | 6.5 |
| COc1cccc(C(=O)Nc2ccc3c(c2)C(=O)N(CC2CCCO2)C3=O)c1 (stereo not shown) | 0.596 |
| Cc1ccccc1NC(=O)CN1C(=O)NC(C)(c2ccc3c(c2)OCO3)C1=O (stereo not shown) | 10.1 |
| COc1ccccc1C(=O)Nc1ccnn1C1CCN(CC2CC=CCC2)CC1 (stereo not shown) | -69.1 |
| O=C(Nc1cccnc1)C1CCC(CNS(=O)(=O)c2cccc3nsnc23)CC1 (stereo not shown) | 5.13 |
| CCOc1c2ccccc2nn1CCO | 14.5 |
| Cc1nc(NC(=O)CN(C)S(=O)(=O)c2ccc(Br)cc2)sc1C | -1.16 |
| Br.CCn1c2c(c(=N)c3ccccc31)CCC2 | 12 |
| O/N=C1\CCC\C1=C/c1ccco1 | 11.4 |
| Fc1ccc2nc3n(c2c1F)CCCCCC3 | 13.4 |
| CCC(=O)NCC(c1ccco1)N1CCN(c2ccc(OC)cc2)CC1 (stereo not shown) | 13.4 |
| O=C(Nc1nccs1)C(c1ccccc1)N1CCCC1 (stereo not shown) | 2.47 |
| O=C(CN1C(=O)C2CC=CCC2C1=O)NCC1COc2ccccc2O1 (stereo not shown) | 8.49 |

| SMILES | hERG current change (%, negative = inhibition) at 1uM [%] |
| --- | --- |
| COc1ccc(CS(=O)(=O)CC(C)(O)c2ccccc2Cl)cc1 (stereo not shown) | 12.9 |
| CCn1c(SCC(=O)Nc2nccs2)nnc1C1CC1 | 21.3 |
| COCCCn1c(C)nnc1-c1cnn(-c2ccccc2)c1N | 18.3 |
| Cc1nn(CC(=O)Nc2ccccn2)c(C)c1[N+](=O)[O-] | 14.1 |
| CC1CCCC(C)N1/N=C/c1ccc([N+](=O)[O-])cc1 (stereo not shown) | 5.14 |
| CC1(/[N+]([O-])=C/c2ccccc2F)CCCCC1=O (stereo not shown) | 4.48 |
| CCOc1ccccc1NC(=O)COC(=O)/C=C/c1ccc(OC)c(OC)c1 | 8.3 |
| Cc1cc(C(=O)NNC(=O)COc2c(C)cc(Br)cc2C)n[nH]1 | -16.1 |
| O=C(NCCc1cccs1)c1ccc(Cl)c(Cl)c1 | -0.66 |
| C/C(=N\NC(=O)c1ccccc1[N+](=O)[O-])c1ccc(Br)s1 | 14.7 |
| CSc1ccc(NC(=O)Nc2cc(C)ccn2)cc1 | 15.3 |
| CC(C)(C)CN1C(=O)C(=O)NC[C@H]1Cc1ccc(O)cc1 | 8.12 |
| Cc1ccc(NC2=NCCCCC2)cc1C.Cl | 18.1 |
| Cc1cc(N(CN2CCCC2=O)C(=O)c2ccc(OC(C)C)cc2)no1 | -0.184 |
| CC(=O)NCC(=O)Nc1ccc(Br)cc1C(=O)c1ccccc1 | 7.11 |
| Cc1cc(-c2c(C)[nH]n(-c3ccc(Cl)cc3)c2=O)n(-c2ccccc2)n1 | 8.13 |
| O=C(NNC1=Nc2ccccc2SC1)c1ccccc1F | 16.5 |
| CCOC(=O)c1nnn(CC(=O)N2N=C(c3ccc(Cl)cc3)CC2c2ccc(OC)cc2)c1C(=O)OCC (stereo not shown) | 0.0097 |
| Cc1cc(C)cc(N(CC(=O)O)S(=O)(=O)c2c(C)[nH]c(=O)[nH]c2=O)c1 | 9.7 |
| COc1ccc(S(=O)(=O)Nc2ccc(C)cc2)cc1N(C)S(=O)(=O)c1ccc(Cl)cc1 | 8.03 |
| CC(C)N(C(=O)Cn1cc(SCC(N)=O)c2ccccc21)C(C)C | 7.97 |
| Cc1ccccc1C(=O)NNC(=S)NC(=O)COc1ccccc1 | 16.5 |
| CCOc1ccc(CCNc2nc3ccccc3n3cnnc23)cc1OCC | 15 |

| SMILES | hERG current change (%, negative = inhibition) at 1uM [%] |
| --- | --- |
| Cc1cc2ncn(C(=O)c3c(-c4ccccc4)noc3C)c2cc1C | 0.0878 |
| CC(C)(C)OC(=O)N1CCC(c2c(C(=O)NCC3CCN(C4CCCC4)C3)cnn2-c2cccc(Cl)c2)CC1 (stereo not shown) | 5.86 |
| CC(Sc1nc(N)c(NC(=O)c2ccc(Br)o2)c(=O)[nH]1)C(=O)O (stereo not shown) | -4.87 |
| O=C(CSc1nc2nc(-c3cccs3)cc(C(F)(F)F)c2c(=O)[nH]1)NCc1ccco1 | 4.84 |
| CCOC(=O)CN(C(=O)Cn1nnc(-c2ccc(C)cc2)n1)C(CC)C(=O)NC1CCCC1 (stereo not shown) | 3.44 |
| O=C(Nc1ccc(F)cc1)Nc1nnc(-c2ccncc2)s1 | 13 |
| CCC(CO)N=CC1=C(O)CC(c2ccccc2)CC1=O (stereo not shown) | 15.6 |
| O=C(CCN1C(=O)/C(=C\c2ccccc2)SC1=S)NCCCN1CCOCC1 | -2.63 |
| COc1ccc2c(c1)C1NC(=S)NC(C)(O2)C1C(=O)Nc1ccccc1C (stereo not shown) | 4.75 |
| Cc1ccccc1N1C(=O)C(Oc2ccc(Cl)cc2)C1CNCCCOC(C)C (stereo not shown) | -3.82 |
| Cc1cc(=O)[nH]c2c1c(C)nn2C1CCCCC1 | 3.19 |
| Cc1cc(C(=O)CSc2nnnn2-c2ccc(O)cc2)c(C)n1C | 15.4 |
| O=C(COc1coc(CN2CCc3ccccc32)cc1=O)NCCc1ccccc1 | 12.1 |
| Cc1c(N2C(=O)C3C4C=CC(C4)C3C2=O)c(=O)n(-c2ccccc2)n1C (stereo not shown) | 14 |
| CCc1nnc(NC(=O)c2ccc(COc3ccccc3C)o2)s1 | 15.8 |
| Cl.Nc1nonc1C(=O)NCCNCc1c(OCc2ccccc2F)ccc2ccccc12 | -1.93 |
| Cc1cccc(C)c1OCCNC(=O)c1ccc2ccccc2n1 | 12.2 |
| COc1ccc(-c2ccnc(SCC(=O)c3ccc(Br)cc3)n2)cc1 | -2.08 |
| CCOC(=O)C1CCN(C(=O)CSc2ccc(Br)cc2)CC1 | -1.57 |
| Cc1ccc(C)c(S(=O)(=O)Nc2ccc(C(=O)N3CCC3)cc2)c1 | 6 |
| Cc1cc(OCC(=O)NCCN2CCOCC2)c2c(C)c(C)c(=O)oc2c1 | 6.74 |
| CC1Cc2ccccc2N1C(=O)CO/N=C/c1ccc(OC(F)F)cc1 (stereo not shown) | -4.16 |
| CCCn1nnnc1SCC(=O)Nc1cccc(NC(=O)c2ccco2)c1 | -0.863 |

| SMILES | hERG current change (%, negative = inhibition) at 1uM [%] |
| --- | --- |
| Cc1cc(C(=O)NNc2c(Cl)cccc2Cl)n(C(C)(C)C)n1 | 14.4 |
| CCOC(=O)c1cn(CC(=O)Nc2ccc(C)cc2)nn1 | 5 |
| Cc1ccc(S(=O)(=O)Nc2nc3ccccc3nc2N2CCN(c3ccccc3F)CC2)cc1 | 3.63 |
| COc1ccccc1NS(=O)(=O)c1cccc(C(=O)NCC(c2ccco2)N2CCCC2)c1 (stereo not shown) | 4.17 |
| Cc1cc2c(cc1C)/C(=N/NC(=O)c1ccccn1)CCC2 | 9.3 |
| Cc1cc(C(F)(F)F)nc(SCC(=O)c2cccc([N+](=O)[O-])c2)n1 | 8.12 |
| O=C(N/N=C/c1c(O)n(-c2ccc(Cl)cn2)c(=O)c2ccccc12)C1CC1 | 11.3 |
| COc1ccc(CCn2c(C)ccc2C)cc1OC | 12 |
| O=C(NCC(c1ccco1)N1CCCCC1)c1ccc(OCc2ccccc2)cc1 (stereo not shown) | 7.85 |
| Cc1cccc(/C(N)=N/OC(=O)c2cccc3ccccc23)c1 | 15.3 |
| CCN(CC)c1nc(N2CCOCC2)nc2ccccc12.Cl | -24.1 |
| COc1ccccc1CN1CCNC(=O)C1CC(=O)NCC1CCOCC1 (stereo not shown) | 2.5 |
| Cc1cc(Cn2nc(-c3ccccc3)cc2C(=O)NCc2cccc(C(F)(F)F)c2)on1 | 15.7 |
| CC(=O)CCS(=O)(=O)c1ccc(C)c(C)c1 | 5.75 |
| Cc1cc(C)c2c(N)c(C(=O)Nc3ccccc3F)sc2n1 | 16.3 |
| COc1ccc(C(=O)C2CCCN(C3Cc4ccccc4C3)C2)cc1OC (stereo not shown) | -33.2 |
| CC1=C(C(=O)OC2CCCCCCC2)C(c2ccc(O)cc2)NC(=O)N1 (stereo not shown) | 15 |
| Cc1ccc(NC(=O)CC2SC(=NCC3CCCO3)NC2=O)cc1Cl (stereo not shown) | -0.329 |
| Cc1cc(=O)oc2c3c(cc(OCC(=O)Nc4cccnc4)c12)OC(C)(C)CC3 | 18.4 |
| Cc1cc(=O)n2[nH]c(CCC(=O)O)nc2n1 | 13.9 |
| COc1ccc(/C=C/c2c(-c3cccc(C)c3)oc3ccc(N4CCOCC4)cc23)cc1 | 18.5 |
| CC/C(=N\Nc1ccccc1[N+](=O)[O-])c1ccc(O)cc1 | 16.6 |
